# Test results taken from PMC11995724, “Antibiotic target discovery by integrated phenotypic and activity-based profiling of electrophilic fragments” (Cell chemical biology, 2025).
# The campaign covered roughly 3,200 compounds. About 110 (3.4%) showed an effect of 50% or more. Some of the results follow.
# Test system: T1, V. cholerae SAD30
# T1 construct: SAD30
# Design: species or system S. aureus MSSA476 (TSB) or V. cholerae SAD30 (LB); 384-well bacterial growth screen at 25 uM, OD600 relative to DMSO control
# Conditions: relative growth, OD600, LB; 25 µM; inhibitor
row,Structure (SMILES),% of control remaining [%]
1,"CC(C)c1cc(O)nc(N2CCC(NC(=O)CCl)C2)n1 (stereo not drawn) [4-D13, 2-chloro-N-{1-[4-hydroxy-6-(propan-2-yl)pyrimidin-2-yl]pyrrolidin-3-yl}acetamide]",101.272
2,"CC(Cl)C(=O)Nc1ccc([N+](=O)[O-])cc1C#N (stereo not drawn) [5-I15, 2-chloro-N-(2-cyano-4-nitrophenyl)propanamide]",91.7936
3,"C=CC(=O)Nc1ccc(C(=O)N[C@H]2COC[C@@H]2OC)cc1 (racemic) [3-C08, rac-N-[(3R,4S)-4-methoxyoxolan-3-yl]-4-(prop-2-enamido)benzamide]",108.498
4,"N#CC(=Cc1ccc(Cl)cc1)C(=O)Nc1cccc2c1C(=O)NC2=O [9-D09, 3-(4-chlorophenyl)-2-cyano-N-(1,3-dioxo-2,3-dihydro-1H-isoindol-4-yl)prop-2-enamide]",89.259
5,"C=CC(=O)NC(CN1CCCS1(=O)=O)C1CC1 (stereo not drawn) [1-H10, N-[1-cyclopropyl-2-(1,1-dioxo-1lambda6,2-thiazolidin-2-yl)ethyl]prop-2-enamide]",105.741
6,"CCS(=O)(=O)c1ccc(NC(=O)CCl)c(O)c1 [4-P21, 2-chloro-N-[4-(ethanesulfonyl)-2-hydroxyphenyl]acetamide]",111.796
7,"Cc1cc(C(=O)CCl)c(C)n1CCc1ccc(F)cc1 [10-G14, 2-chloro-1-{1-[2-(4-fluorophenyl)ethyl]-2,5-dimethyl-1H-pyrrol-3-yl}ethan-1-one]",97.7206
8,"CC(Cl)C(=O)NCCc1nnc2n1CCCCC2 (stereo not drawn) [7-D09, 2-chloro-N-(2-{5H,6H,7H,8H,9H-[1,2,4]triazolo[4,3-a]azepin-3-yl}ethyl)propanamide]",81.9428
9,"O=C(CCl)NCCCC(=O)N1CCCC1 [7-N08, 2-chloro-N-[4-oxo-4-(pyrrolidin-1-yl)butyl]acetamide]",86.7008
10,"Cn1nc(C(F)(F)F)cc1CN(C(=O)CCl)C1CCCC1 [5-C16, 2-chloro-N-cyclopentyl-N-{[1-methyl-3-(trifluoromethyl)-1H-pyrazol-5-yl]methyl}acetamide]",89.1037
11,"Cc1ccc(N(CCC#N)C(=O)CCl)cc1C [4-A03, 2-chloro-N-(2-cyanoethyl)-N-(3,4-dimethylphenyl)acetamide]",114.039
12,"C=CC(=O)NCc1ccccc1S(=O)(=O)N1CCOCC1 [3-H22, N-{[2-(morpholine-4-sulfonyl)phenyl]methyl}prop-2-enamide]",104.97
13,"Cc1c(C=C(C#N)C(=O)Nc2ccccn2)cc(C#N)n1C [8-G06, 2-cyano-3-(5-cyano-1,2-dimethyl-1H-pyrrol-3-yl)-N-(pyridin-2-yl)prop-2-enamide]",75.6628
14,"Cc1cc(C)cc(N(CCC#N)C(=O)CCl)c1 [5-P18, 2-chloro-N-(2-cyanoethyl)-N-(3,5-dimethylphenyl)acetamide]",106.252
15,"O=C1C=CC(=O)N1c1ccc(F)c(Cl)c1 [10-D15, 1-(3-chloro-4-fluorophenyl)-2,5-dihydro-1H-pyrrole-2,5-dione]",25.716
16,"COc1cc([N+](=O)[O-])ccc1N1C(=O)C=CC1=O [10-H13, 1-(2-methoxy-4-nitrophenyl)-2,5-dihydro-1H-pyrrole-2,5-dione]",24.625
17,"Cc1nc(-c2cccc(NC(=O)CCl)c2)cs1 [5-K17, 2-chloro-N-[3-(2-methyl-1,3-thiazol-4-yl)phenyl]acetamide]",93.643
18,"CC(Cl)C(=O)Nc1ccc(F)c(Cl)c1 (stereo not drawn) [4-A04, 2-chloro-N-(3-chloro-4-fluorophenyl)propanamide]",99.7196
19,"CC(C)NC(=O)C(C#N)=Cc1cccc(Cl)c1 [9-A13, 3-(3-chlorophenyl)-2-cyano-N-(propan-2-yl)prop-2-enamide]",88.0354
20,"COc1ccc(C=C(C#N)C(=O)Nc2cccc(C)c2)cc1 [8-M03, 2-cyano-3-(4-methoxyphenyl)-N-(3-methylphenyl)prop-2-enamide]",85.4521
21,"CC(Cl)C(=O)Nc1ccc(S(=O)(=O)N2CCCCC2)cc1 (stereo not drawn) [4-A12, 2-chloro-N-[4-(piperidine-1-sulfonyl)phenyl]propanamide]",95.234
22,"CC(Cl)C(=O)N1CCN(C(c2ccccc2)C(F)(F)F)CC1 (stereo not drawn) [6-P16, 2-chloro-1-[4-(2,2,2-trifluoro-1-phenylethyl)piperazin-1-yl]propan-1-one]",99.8009
23,"O=C(CCl)C1CCCC2(CC2)C1 (stereo not drawn) [10-E11, 2-chloro-1-{spiro[2.5]octan-5-yl}ethan-1-one]",109.254

row,Structure (SMILES),% of control remaining [%]
1,"Cl.Cn1ccc(-c2nc(CNC(=O)CCl)cs2)n1 [6-B09, 2-chloro-N-{[2-(1-methyl-1H-pyrazol-3-yl)-1,3-thiazol-4-yl]methyl}acetamide hydrochloride]",80.3868
2,"C=CC(=O)Nc1ccc(C(=O)N2C[C@H](O)C[C@H]2C(=O)OC)cc1 [2-O21, methyl (2S,4R)-4-hydroxy-1-[4-(prop-2-enamido)benzoyl]pyrrolidine-2-carboxylate]",94.2102
3,"C=CC(=O)N(Cc1c(C)cc(Cl)cc1C)CC1COCCO1 (stereo not drawn) [1-J09, N-[(4-chloro-2,6-dimethylphenyl)methyl]-N-[(1,4-dioxan-2-yl)methyl]prop-2-enamide]",120.329
4,"Cc1c(NC(=O)CCl)cccc1[N+](=O)[O-] [4-E07, 2-chloro-N-(2-methyl-3-nitrophenyl)acetamide]",98.512
5,"O=C(CCl)NC(c1ccccc1)C1CCCCC1 (stereo not drawn) [6-E12, 2-chloro-N-[cyclohexyl(phenyl)methyl]acetamide]",79.0217
6,"CC(=O)NCc1ccc(C2CCCN2C(=O)CCl)o1 (stereo not drawn) [5-P13, N-({5-[1-(2-chloroacetyl)pyrrolidin-2-yl]furan-2-yl}methyl)acetamide]",100.368
7,"C=CC(=O)Nc1cccc(-c2cn(C)nn2)c1 [1-K14, N-[3-(1-methyl-1H-1,2,3-triazol-4-yl)phenyl]prop-2-enamide]",83.4081
8,"CCOC(=O)c1c(NC(=O)CCl)sc(C)c1C [4-O15, ethyl 2-(2-chloroacetamido)-4,5-dimethylthiophene-3-carboxylate]",102.998
9,"C=CC(=O)N1CCN(S(C)(=O)=O)[C@H](C)C1 [1-G15, 1-[(3R)-4-methanesulfonyl-3-methylpiperazin-1-yl]prop-2-en-1-one]",91.4798
10,"N#CC(=Cc1ccccc1)C(=O)Nc1ccc(N2CCCCC2)cc1 [8-E15, 2-cyano-3-phenyl-N-[4-(piperidin-1-yl)phenyl]prop-2-enamide]",71.7199
11,"O=C(CCl)NCCC1=CCCCC1 [4-H05, 2-chloro-N-[2-(cyclohex-1-en-1-yl)ethyl]acetamide]",111.451
12,"CC(NC(=O)C(C#N)=Cc1ccco1)c1cccc(-n2cccn2)c1 (stereo not drawn) [9-J04, 2-cyano-3-(furan-2-yl)-N-{1-[3-(1H-pyrazol-1-yl)phenyl]ethyl}prop-2-enamide]",81.5092
13,"CC(Cl)C(=O)N1CCC(n2nnc3c2CCCC3)CC1 (stereo not drawn) [7-H17, 2-chloro-1-[4-(4,5,6,7-tetrahydro-1H-1,2,3-benzotriazol-1-yl)piperidin-1-yl]propan-1-one]",75.4667
14,"N#CC(=Cc1c(F)cccc1F)C(=O)Nc1ccccc1Cl [9-I20, N-(2-chlorophenyl)-2-cyano-3-(2,6-difluorophenyl)prop-2-enamide]",88.3073
15,"C=CC(=O)N1CCOC(c2nc(C)cs2)C1 (stereo not drawn) [3-A17, 1-[2-(4-methyl-1,3-thiazol-2-yl)morpholin-4-yl]prop-2-en-1-one]",114.144
16,"CC(Cl)C(=O)NC1CCCc2ccccc21 (stereo not drawn) [5-M19, 2-chloro-N-(1,2,3,4-tetrahydronaphthalen-1-yl)propanamide]",88.2631
17,"CC1CC(C(=O)CCl)CO1 (stereo not drawn) [10-M13, 2-chloro-1-(5-methyloxolan-3-yl)ethan-1-one]",117.514
18,"CC(Cl)C(=O)Nc1ccc(Cl)c(C(F)(F)F)c1 (stereo not drawn) [4-C12, 2-chloro-N-[4-chloro-3-(trifluoromethyl)phenyl]propanamide]",57.796
19,"C=CC(=O)N1CCC(n2cc(CO)nn2)C1 (stereo not drawn) [2-E08, 1-{3-[4-(hydroxymethyl)-1H-1,2,3-triazol-1-yl]pyrrolidin-1-yl}prop-2-en-1-one]",89.2695
20,"C=CC(=O)N(C)CC(=O)NCc1nc2cc(C)ccc2n1C [2-B14, N-({[(1,5-dimethyl-1H-1,3-benzodiazol-2-yl)methyl]carbamoyl}methyl)-N-methylprop-2-enamide]",85.2552
21,"C=CC(=O)N1CCC(n2cnc3ccccc3c2=O)C1 (stereo not drawn) [3-C03, 3-[1-(prop-2-enoyl)pyrrolidin-3-yl]-3,4-dihydroquinazolin-4-one]",122.437
22,"N#CC(=Cc1ccccc1)C(=O)NCc1ccc(F)cc1 [8-P10, 2-cyano-N-[(4-fluorophenyl)methyl]-3-phenylprop-2-enamide]",74.5751
